In all, about 39,000 compounds went through this assay and about 220 (0.56%) showed activity. The list shows a part of the results.
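Also: static incubation at 37 °C against the wild-type strain, values averaged over two biological replicates.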

For the experiment, the system named is Escherichia coli K-12 BW25113. As to the kind of experiment: relative growth (OD600 normalised to plate interquartile mean) (fraction); higher = less growth inhibition, active = 0.2 or less. The following applies: 50 µM; LB; incubation time: overnight (16-24 h).
Regarding `C[C@@H](NC(=O)C[C@@H]1CC[C@@H](NC(=O)CN2CCOCC2)[C@H](CO)O1)c1ccccc1`, the relative growth was inactive: 0.915.

In the case of `C[C@@H]1CCCCO[C@H](CN(C)C(=O)Nc2cccc3ccccc23)[C@@H](C)CN([C@H](C)CO)C(=O)c2cc(NC(=O)C3CCCCC3)ccc2O1`, the relative growth is inactive: 0.993. The result for `CC(C)NC(=O)Nc1ccc2c(c1)C(=O)N([C@H](C)CO)C[C@H](C)[C@@H](CN(C)C(=O)Nc1ccc(F)cc1)OCCCC[C@@H](C)O2` reads inactive: 0.995; that for `C[C@H]1CN([C@@H](C)CO)C(=O)c2cc(NC(=O)Cn3cnnn3)ccc2O[C@H]1CN(C)CC1CC1`, inactive: 1.04. On to `COc1cccc(S(=O)(=O)N(C)C[C@H]2Oc3cc(C4=CCCC4)ccc3S(=O)(=O)N([C@H](C)CO)C[C@H]2C)c1`, for which the relative growth was inactive: 1.02. To `NS(=O)(=O)c1cc(-c2nn[nH]n2)c(NCc2cccs2)cc1Cl` belongs inactive: 0.965; to `C[C@H](CO)N1C[C@H](C)[C@H](CN(C)Cc2ccc(C(F)(F)F)cc2)OCCCC[C@H](C)Oc2ccc(NS(=O)(=O)c3ccc(Cl)cc3)cc2C1=O`, inactive: 1.05. To `CC1CCC2C(C)(CO)C(O)CCC2(C)C12CCC(CO)(CCO)O2` (stereo unspecified) belongs inactive: 0.981; to `C[C@@H]1CN([C@@H](C)CO)C(=O)Cc2cc(NC(=O)C3CC3)ccc2O[C@H]1CN(C)S(=O)(=O)c1cn(C)cn1`, inactive: 1. To `O=C(C[C@@H]1C[C@@H]2c3cc(NC(=O)Nc4ccc(C(F)(F)F)cc4)ccc3O[C@@H]2[C@H](CO)O1)NC1CCCCC1` belongs inactive: 0.959; to `Cc1noc(C)c1S(=O)(=O)N(C)C[C@@H]1Oc2c(NS(=O)(=O)c3cn(C)cn3)cccc2C(=O)N([C@@H](C)CO)C[C@H]1C`, inactive: 0.99. With `CN1C(=O)c2cc(NC(=O)c3ccc(C(F)(F)F)cc3)ccc2OC[C@@H]2O[C@H](CC(=O)NC3Cc4ccccc4C3)CC[C@@H]21`, the relative growth was inactive: 1.01. The result for `CNC(=O)C[C@@H]1CC[C@@H]2[C@H](COC[C@@H](O)CN2C(=O)Nc2ccc3c(c2)OCO3)O1` reads inactive: 0.995; that for `C[C@@H]1CN([C@@H](C)CO)C(=O)c2cc(NS(C)(=O)=O)ccc2O[C@@H](C)CCCCO[C@@H]1CN(C)S(=O)(=O)c1cn(C)cn1`, inactive: 1. To `Cc1noc(C)c1NC(=O)Nc1ccc2c(c1)C(=O)N([C@H](C)CO)C[C@@H](C)[C@@H](CN(C)S(=O)(=O)c1ccccc1)OCCCC[C@@H](C)O2` belongs inactive: 1.01; to `C[C@H]1CN([C@@H](C)CO)S(=O)(=O)c2ccc(C#Cc3cccnc3)cc2O[C@@H]1CN(C)C(=O)Nc1ccc2c(c1)OCO2`, inactive: 1.01. On to `COc1ccc(NC(=O)N(C)C[C@H]2Oc3ccc(NC(=O)CCN4CCOCC4)cc3CC(=O)N([C@@H](C)CO)C[C@@H]2C)cc1`, for which the relative growth is inactive: 0.952. Turning to `Cc1noc(C)c1NC(=O)Nc1ccc2c(c1)C(=O)N([C@H](C)CO)C[C@H](C)[C@H](CN(C)Cc1ccncc1)OCCCC[C@H](C)O2`, the relative growth was inactive: 1.01. The result for `COc1ccccc1CNC(=O)C[C@H]1CC[C@H]2[C@@H](COC[C@H](O)CN2C(=O)Nc2ccc(F)cc2)O1` reads inactive: 0.988; that for `O=C(C[C@H]1CC[C@@H]2[C@H](COC[C@H](O)CN2S(=O)(=O)c2cccc(Cl)c2)O1)NC1Cc2ccccc2C1`, inactive: 0.986. To `COc1ccccc1C#Cc1cnc2c(c1)C(=O)N([C@H](C)CO)C[C@@H](C)[C@@H](CN(C)C(=O)CC1CC1)O2` belongs inactive: 1.01; to `C[C@@H]1CN([C@@H](C)CO)C(=O)Cc2cc(NC(=O)CCCN(C)C)ccc2O[C@H]1CN(C)Cc1ccc(Oc2ccccc2)cc1`, inactive: 0.784; to `C[C@H](CO)N1C[C@H](C)[C@@H](CN(C)S(C)(=O)=O)Oc2ccc(NC(=O)Cn3cnnn3)cc2CC1=O`, inactive: 0.934. The result for `Cc1noc(C)c1NC(=O)N(C)C[C@H]1Oc2c(NC(=O)Cn3cnnn3)cccc2C(=O)N([C@H](C)CO)C[C@@H]1C` reads inactive: 0.966; that for `Cc1cccc(S(=O)(=O)N2C[C@@H](O)COC[C@@H]3O[C@@H](CC(=O)NCCCN4CCOCC4)CC[C@H]32)c1`, inactive: 1; that for `CC(C)NC(=O)Nc1ccc2c(c1)C(=O)N([C@H](C)CO)C[C@@H](C)[C@H](CN(C)Cc1ccc(Oc3ccccc3)cc1)O2`, inactive: 1.01. In the case of `C[C@H](CO)N1C[C@H](C)[C@H](CN(C)Cc2ccc(Oc3ccccc3)cc2)Oc2ccc(NC(=O)Nc3cccc4ccccc34)cc2C1=O`, the relative growth is inactive: 1.02. The result for `C[C@H]1CN([C@@H](C)CO)C(=O)c2cccc(NC(=O)NC3CCCCC3)c2O[C@@H]1CN(C)S(=O)(=O)c1cn(C)cn1` reads inactive: 0.99; that for `C[C@H]1CN([C@@H](C)CO)C(=O)Cc2cc(NC(=O)Cc3cn(C)c4ccccc34)ccc2O[C@@H]1CN(C)C(=O)Nc1cccc2ccccc12`, inactive: 1.04. To `COc1ccc([Si](C)(C)[C@H]2[C@H](CC(=O)N3CCC[C@H]3CO)O[C@@]3(C(=O)N(Cc4cccc(N5C(=O)c6cccc7cccc5c67)c4)c4ccccc43)[C@@H]2C)cc1` belongs inactive: 1.02; to `C[C@H]1CN([C@@H](C)CO)C(=O)Cc2cc(NC(=O)c3ccncc3)ccc2O[C@@H]1CN(C)Cc1ccc(C(=O)O)cc1`, inactive: 1; to `Cc1ccc(S(=O)(=O)N(C)C[C@@H]2Oc3ccc(NC(=O)Cn4cnnn4)cc3C(=O)N([C@H](C)CO)C[C@H]2C)cc1`, inactive: 0.986. The result for `Cn1cnc(S(=O)(=O)N2C[C@H](O)COC[C@H]3O[C@H](CC(=O)NC4CCCC4)CC[C@@H]32)c1` reads inactive: 1.04; that for `CO[C@@H]1CN(C)C(=O)c2ccc(NS(=O)(=O)c3cn(C)cn3)cc2OC[C@@H](C)N(Cc2cccc(F)c2)C[C@@H]1C`, inactive: 1.

`CC(C)NC(=O)N(C)C[C@H]1Oc2ccc(NC(=O)CCCN(C)C)cc2C(=O)N([C@@H](C)CO)C[C@H]1C`: the relative growth was inactive: 0.977. To `CCOC(=O)[C@H]1C/C=C/C[C@H](C(=O)OCC)C(=O)O[C@H]2[C@@H](OC)O[C@H](CO)[C@@H](OC(=O)Nc3cccc(F)c3)[C@@H]2OC1=O` belongs inactive: 1.03.

The record behind these values is the supplement of paper PMC9446081.
